Test results reported in paper PMC4336329 (PLoS ONE, 2015).
In all, about 310,000 compounds went through this assay and about 14,000 (4.5%) showed an effect of 50% or more. The effect is printed as a negative number. The list shows a part of the results.

target: human ether-à-go-go-related gene (hERG) potassium channel (human, UniProt Q12809); test: primary screen, population patch clamp on CHO cells stably expressing hERG
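Note: peak tail current of the secondary pulse compared with the same well before compound.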

Chain of human ether-à-go-go-related gene (hERG) potassium channel (Q12809 whole entry, looked up): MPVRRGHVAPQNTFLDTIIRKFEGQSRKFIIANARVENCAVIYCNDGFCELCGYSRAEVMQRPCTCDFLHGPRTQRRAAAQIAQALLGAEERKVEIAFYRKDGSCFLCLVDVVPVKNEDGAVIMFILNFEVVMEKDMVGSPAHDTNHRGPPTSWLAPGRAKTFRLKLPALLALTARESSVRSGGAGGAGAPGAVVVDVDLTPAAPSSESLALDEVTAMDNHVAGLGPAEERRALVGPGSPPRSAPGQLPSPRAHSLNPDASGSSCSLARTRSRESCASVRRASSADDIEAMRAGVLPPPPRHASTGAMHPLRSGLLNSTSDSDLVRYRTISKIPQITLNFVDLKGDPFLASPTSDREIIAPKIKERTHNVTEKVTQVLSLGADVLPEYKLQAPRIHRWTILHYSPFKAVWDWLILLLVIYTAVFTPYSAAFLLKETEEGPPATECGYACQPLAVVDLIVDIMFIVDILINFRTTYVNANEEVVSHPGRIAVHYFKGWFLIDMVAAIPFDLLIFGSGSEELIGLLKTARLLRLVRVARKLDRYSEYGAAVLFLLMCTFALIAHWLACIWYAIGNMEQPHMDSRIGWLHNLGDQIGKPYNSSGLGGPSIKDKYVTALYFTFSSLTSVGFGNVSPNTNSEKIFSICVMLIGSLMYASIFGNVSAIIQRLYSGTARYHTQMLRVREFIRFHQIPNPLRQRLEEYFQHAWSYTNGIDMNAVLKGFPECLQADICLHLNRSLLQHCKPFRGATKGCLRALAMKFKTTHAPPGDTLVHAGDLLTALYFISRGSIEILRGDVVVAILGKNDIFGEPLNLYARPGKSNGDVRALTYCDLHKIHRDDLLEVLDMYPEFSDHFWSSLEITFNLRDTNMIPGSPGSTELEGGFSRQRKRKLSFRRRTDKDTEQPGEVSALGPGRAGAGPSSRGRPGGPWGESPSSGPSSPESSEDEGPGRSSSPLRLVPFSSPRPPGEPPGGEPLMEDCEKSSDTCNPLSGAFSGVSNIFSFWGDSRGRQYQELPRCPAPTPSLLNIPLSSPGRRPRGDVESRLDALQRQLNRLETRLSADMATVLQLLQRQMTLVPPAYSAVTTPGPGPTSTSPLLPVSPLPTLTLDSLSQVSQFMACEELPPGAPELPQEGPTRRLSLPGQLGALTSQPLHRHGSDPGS

SMILES	hERG current change (%, negative = inhibition) at 10uM [%]
COc1cccc(/C=C2\N=C(SC)SC2=O)c1OC	-1.25
Cn1nnnc1CCOCCc1nnnn1C	4.52
CCOC(=O)[C@@H]1[C@H]2COc3cc(OC)ccc3[C@H]2N2C(=O)N(c3ccc(F)cc3)C(=O)[C@@]12C	16.3
CCOC(=O)Cn1c(=O)oc2cc(S(=O)(=O)NCCc3ccc(C)cc3)ccc21	-29.6
CC(CN1CCOCC1)C(=O)c1ccccc1.Cl (stereo not shown)	8.47
CCc1cc2c(SCC(=O)c3cccs3)ncnc2s1	13.7
O=C(NCCCN1CCOCC1)/C(=C/c1ccc(F)cc1)NC(=O)c1ccccc1	-73.5
O=C(c1cc([N+](=O)[O-])ccc1N1CCOCC1)N1CCN(c2ccccc2)CC1	-32.3
CCOC(=O)c1c(NC(=O)CSc2nnc(-c3ccncc3)n2Cc2ccco2)sc(C)c1C	-19.3
COc1cccc(CCNc2ccc(N3C(=O)CC(C)C3=O)cc2[N+](=O)[O-])c1 (stereo not shown)	11.6
COc1ccc(C(=O)NCCOc2ccccc2Cl)c(OC)c1OC	-11.1
CCOC(=O)C1CCN(S(=O)(=O)c2ccc(-c3ccc(=O)[nH]n3)o2)CC1	-39.4
O=C(C1CCN(Cc2ccccc2O)CC1)N1CCN(Cc2ccc3c(c2)OCO3)CC1	-23
COCC(=O)Nc1nnc(CCc2ccccc2)s1	-1.23
N/C(CN1CCCC1=O)=N\OC(=O)c1ccccc1Cl	-12.1
O=C(COc1ccccc1)N1CCN=C1c1ccccc1	-77.5
O=C(/C=C/c1ccco1)NC(=S)Nc1ccc(N2CCOCC2)c(Cl)c1	-9.29
CS(=O)(=O)N(CC(=O)O)c1cccc(Cl)c1	8.91
CN(C(=O)CSc1nc(-c2ccccc2)cn1N)C(c1ccccc1)c1ccccc1	5.96
CCCCCC(=O)Oc1cccc(N2C(=O)C3CCCCC3C2=O)c1 (stereo not shown)	28.1
Cc1cccc(Nc2nnc(SCC(=O)N(C)C3CCS(=O)(=O)C3)s2)c1C (stereo not shown)	6.11
Cc1ccc(-c2nnc(-c3ccccc3)c(N3CCOCC3)n2)cc1	-30

SMILES	hERG current change (%, negative = inhibition) at 10uM [%]
Oc1ccc(C[C@H]2CNCCN2CCc2cc(C(F)(F)F)cc(C(F)(F)F)c2)cc1	-42.2
CCC(Sc1nc2ccc(C)cc2[nH]1)C(=O)O (stereo not shown)	5.08
CC(C)(C)C(=O)CSc1nc2ncc(Br)cc2[nH]1	1.79
Cc1nnc(SCC(=O)Nc2ccc(N3CCN(S(C)(=O)=O)CC3)cc2)o1	13.8
Clc1ccc(-c2csc(N/N=C/c3ccc4c(c3)OCO4)n2)cc1	-4.67
COc1ccc(NC(=O)CSc2nnc(C3CCCCC3)n2-c2ccccc2)cc1	-24.3
Br.O=C(Cn1c(NCCCO)nc2ccccc21)c1ccc([N+](=O)[O-])cc1	-33.3
COC(=O)c1ccc(-n2c(C)nc(=O)c(-c3ccccc3)c2C)cc1	-0.769
O=C(N/N=C/c1ccco1)C1CCCC1	22.1
COc1cccc(CNC(=O)Cc2c(C(=O)O)[nH]c3ccccc23)c1	8.83
CCOC(=O)C1(CCCc2ccccc2)CCN(C(=O)C(C)n2cncn2)CC1 (stereo not shown)	-29
Cc1nc2cc(-c3ccc(Br)cc3)[nH]n2c(=O)c1Cl	20
O=C(NCc1ccc(F)cc1)C1CCC(=O)N1CCc1ccccc1 (stereo not shown)	-24
CC1CCN(Cc2c(C(=O)N/N=C/c3ccc(C(C)C)cc3)nnn2-c2nonc2N)CC1	20.2
CC(=O)Nc1ccc(S(=O)(=O)Nc2ccc(NC(=O)c3ccco3)cc2)cc1	5.13
CC1(C)Cc2c(cnn2-c2ccc(F)cc2)C(NC(=O)C2=NNC(=O)CC2)C1 (stereo not shown)	-68.4
CCCCNC(=O)Nc1ccccc1CC	23.6
O=S(=O)(c1ccccc1)N1CCN(CCO)CC1	-6.08
CCOc1ccc(C(=O)NCC(=O)N2CCN(c3ccc(C(F)(F)F)cn3)CC2)cc1	-7.32
C=C(C)[C@@H]1CC[C@]2(C(=O)O)CC[C@]3(C)[C@H](CC[C@@H]4[C@@]5(C)CC[C@H](O)C(C)(C)[C@@H]5CC[C@]43C)[C@@H]12	-8.59
Nc1ccccc1C#Cc1cnccn1	9.89
CC1CN(CCCCOc2ccc(F)cc2)CC(C)O1.O=C(O)C(=O)O (stereo not shown)	-42.7

SMILES	hERG current change (%, negative = inhibition) at 10uM [%]
NC(=O)COC(=O)c1ccccc1Oc1ccccc1	6.04
S=C(NCCc1ccccc1)Nc1ccccn1	17.8
COc1ccc(S(=O)(=O)NCC2CCC(C(=O)NCc3ccco3)CC2)cc1 (stereo not shown)	20.2
N#Cc1ccncc1Sc1ccc(Cl)cc1	-6.67
CN(C)C(=O)c1cc2cc(Br)ccc2s1	-3.77
C/C(=N\NC(=O)c1nnn(-c2nonc2N)c1CN1CCc2ccccc21)c1ccccc1O	12.8
CCCCCN(C(=O)NC(=O)Nc1ccccc1C)S(C)(=O)=O	-1.9
CCN(CC)S(=O)(=O)c1ccc(Cl)c(NC(=O)COC(=O)c2cc(-c3ccccc3Cl)nc3ccccc23)c1	16.7
O=C(O)Cn1c(SCCOc2ccccc2)nc2ccccc21	0.876
CC(C)OCCCNC(=O)c1sc(=S)n(C)c1N	2.64
O=C(CCc1nc(-c2ccccc2F)no1)NC1CCCCC1	3.99
O=C(N/N=C/c1cn(-c2ccccc2)nc1-c1ccc(F)cc1)c1ccc(Br)o1	27.7
CCN1C(=O)[C@H]2[C@@H](c3ccc(Cl)cc3)N3C(=O)CN(CC4CC4)C(=O)[C@@]3(Cc3ccccc3)[C@H]2C1=O	-18.2
CCOc1ccc2nc(SC3CC(=O)N(c4ccc(C)cc4)C3=O)sc2c1 (stereo not shown)	-6.29
C/C(=N\Nc1nc(N2CCOCC2)nc(N2CCOCC2)n1)c1cccc([N+](=O)[O-])c1	-4.76
COc1ccc2nc(NC(=O)CCc3cc(OC)c(OC)c(OC)c3)sc2c1	-9.26
CC(=O)Nc1ccc(/C=C2\CCc3ccccc3C2=O)cc1	11.7
COc1ccccc1CC(=O)N1CCN(c2ccccc2F)CC1	-7.74
COc1ccc(-c2cc(C(=O)NCCCN3CCOCC3)c3ccccc3n2)cc1OC	-7.5
CC1(C)NC(=O)N(CC(=O)N2CCN(c3cccc(C(F)(F)F)c3)CC2)C1=O	6.26
C=C1CCC[C@]2(C)C[C@H]3OC(=O)C(CNCCN(CC)CC)[C@H]3CC12.O=C(O)C(=O)O (stereo partly shown)	0.486
O=C(c1ccccc1)N1CCCN(c2nccc(C(F)(F)F)n2)CC1	-5.32

SMILES	hERG current change (%, negative = inhibition) at 10uM [%]
O=C(CCC(=O)c1ccc(F)cc1)NCC1(N2CCCCC2)CCCCC1	-35
Cc1ccc2cccc(OCC(=O)NCc3ccco3)c2n1	-17.9
COc1ccc(S(=O)(=O)Nc2cccnc2)cc1OC	4.69
CCOc1ccc(OCCCC(=O)ON=C(N)c2ccccc2Cl)cc1	5.82
FC(F)(F)c1cccc(N2CCN(C3CC4CCC3C4)CC2)c1 (stereo not shown)	-1.68
CC(Cc1cccs1)NC(=O)Nc1ccc(Cl)cc1 (stereo not shown)	1.12
Cc1noc(C)c1COc1ccc(C(=O)OCC(=O)NCCN2C(=O)CSC2=O)cc1	-8.06
S=c1[nH]nc(-c2ccncc2)n1/N=C/c1cccc2ccccc12	10.1
CCN(CC)CCNC(=O)c1cn(CC)c2ccc(S(=O)(=O)N(C)C3CCCCC3)cc2c1=O	-67.2
CCC(CO)Oc1cc(NC(=O)c2ccccc2)c2ncn(C(C)C)c2c1 (stereo not shown)	-2.51
Cc1cc(NS(=O)(=O)c2ccc(NC(=O)CCCOc3ccccc3C)cc2)no1	10.1
c1ccc(CNc2ncnc3sccc23)cc1	9.9
CCc1cc(=S)n2c([nH]c3ccccc32)c1C#N	24.6
O=C(c1ccccc1)N1CCN(C(=O)c2ccccc2Br)CC1	6.61
Cc1ccc(/C=C2\SC(=S)N(Cc3ccccc3)C2=O)o1	-11.3
CCNc1c(C(=O)O)ccc2c1C(=O)c1ccccc1C2=O	6.49
CC1CCCC(NC(=O)c2cccc(S(=O)(=O)N3CCCCC3)c2)C1C (stereo not shown)	1.84
Cc1ccc(NC(=O)Nc2ccc([N+](=O)[O-])cc2)nc1	9.85
COc1ccc(CCNC(=O)Cn2c(=O)cnc3ccccc32)cc1	-5.47
Cc1ccc(C)c(OCCCC(=O)N2CCOCC2)c1	-2.18
O=C(Nc1sc2c(c1C(=O)NCC(O)CO)CCCC2)c1ccccc1 (stereo not shown)	6.02
CCCC[n+]1ccn(-c2nc3ccccc3nc2[N-]S(=O)(=O)c2ccc(C)cc2)c1	-15.2
